In the supplement of paper PMC12067230:
Single values of this set are uncertain.

test: amyloid nucleation score relative to library mode (yeast Sup35 reporter selection) (log enrichment difference); higher = more amyloid nucleation; sequences are the first 22 residues of the Bri2 peptide extended by up to 12 random residues; settings: random library (experiment): 1;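 active = nucleation score significantly above 0 at FDR 0.05; inactive = not significantly above 0 or absent from output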
Protocol: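 Random C-terminal extensions of the 22-aa Bri2 peptide by 12 NNK codons; premature stops give shorter extensions. Peptides were fused to the Sup35 nucleation domain in S. cerevisiae [psi-pin-] and selected on -ADE-URA plates for 7 d at 30 °C. The nucleation score is log(output/input), centred to the mode of each of 3 independent libraries (1 input, 3 technical output replicates), with duplicates merged. Sequences absent from the output ('random_non_nuc') were imputed with the library mode value, so they are given as censored (<). Nucleators are scores significantly >0 at FDR 0.05.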
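Note: [psi-pin-] Saccharomyces cerevisiae expressing SupN fusions, induced by 100 µM Cu2SO4, selected 7 d at 30 °C without adenine and uracil, scored by deep sequencing of output versus input.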

Row | Sequence | amyloid nucleation score
1 | EASNCFAIRHFENKFAVETLICAQWIGYDVGKWG | -0.0846
2 | EASNCFAIRHFENKFAVETLICARALLMGDLATA | inactive
3 | EASNCFAIRHFENKFAVETLICARAR | inactive
4 | EASNCFAIRHFENKFAVETLICARCSV | inactive
5 | EASNCFAIRHFENKFAVETLICARD | inactive
6 | EASNCFAIRHFENKFAVETLICARDHRWFWSWQK | 2.41
7 | EASNCFAIRHFENKFAVETLICARDSFQVVKTGR | inactive
8 | EASNCFAIRHFENKFAVETLICAREIGESRCLQG | inactive
9 | EASNCFAIRHFENKFAVETLICARELFRLCSKW | inactive
10 | EASNCFAIRHFENKFAVETLICARGAWPVAVGTG | inactive
11 | EASNCFAIRHFENKFAVETLICARGRQTSVLGFR | inactive
12 | EASNCFAIRHFENKFAVETLICARGTKGCYHSVV | inactive
13 | EASNCFAIRHFENKFAVETLICARIGTLVKPAGG | inactive
14 | EASNCFAIRHFENKFAVETLICARIVVVQFGTWL | 1.87
15 | EASNCFAIRHFENKFAVETLICARKVHTFLTGGK | inactive
16 | EASNCFAIRHFENKFAVETLICARKWQGINGLRV | inactive
17 | EASNCFAIRHFENKFAVETLICARLAMQSSGRSG | inactive
18 | EASNCFAIRHFENKFAVETLICARLAVPSAGDGL | inactive
19 | EASNCFAIRHFENKFAVETLICARLCR | inactive
20 | EASNCFAIRHFENKFAVETLICARLRVSLHVGKV | inactive
21 | EASNCFAIRHFENKFAVETLICARLSPGGMEQQ | inactive
22 | EASNCFAIRHFENKFAVETLICARPWAEPPHGQV | -0.0755
23 | EASNCFAIRHFENKFAVETLICARQAALRNRGAW | inactive

Row | Sequence | amyloid nucleation score
24 | EASNCFAIRHFENKFAVETLICARRGTLMSRNSP | inactive
25 | EASNCFAIRHFENKFAVETLICARRMRVLTIARV | inactive
26 | EASNCFAIRHFENKFAVETLICARRRVVACRRAE | inactive
27 | EASNCFAIRHFENKFAVETLICARRRWKVVTGGL | inactive
28 | EASNCFAIRHFENKFAVETLICARRYDKELAVC | 0.0606
29 | EASNCFAIRHFENKFAVETLICARSR | inactive
30 | EASNCFAIRHFENKFAVETLICARTSRAYRMRSW | inactive
31 | EASNCFAIRHFENKFAVETLICARTVYGTGCPWA | inactive
32 | EASNCFAIRHFENKFAVETLICARVA | inactive
33 | EASNCFAIRHFENKFAVETLICARVEVRWQFLGG | 0.514
34 | EASNCFAIRHFENKFAVETLICARVGVRVTAWGP | inactive
35 | EASNCFAIRHFENKFAVETLICARVHEDHRVSSG | -0.029
36 | EASNCFAIRHFENKFAVETLICARVSKSTSWCGD | 4.13
37 | EASNCFAIRHFENKFAVETLICARVV | inactive
38 | EASNCFAIRHFENKFAVETLICARWCT | 3.01
39 | EASNCFAIRHFENKFAVETLICARWRKPNSMCAH | inactive
40 | EASNCFAIRHFENKFAVETLICAS | inactive
41 | EASNCFAIRHFENKFAVETLICASARLTYCACQR | 5.61
42 | EASNCFAIRHFENKFAVETLICASARPPSLMRLF | inactive
43 | EASNCFAIRHFENKFAVETLICASATSMQIMRRW | inactive
44 | EASNCFAIRHFENKFAVETLICASAVRNADLLVW | 4.74
45 | EASNCFAIRHFENKFAVETLICASAVWSFWLLVN | inactive

same assay, conditions: random library (experiment): 2

Row | Sequence | amyloid nucleation score
46 | EASNCFAIRHFENKFAVETLICAQVGFSIVAVLV | 0.371
47 | EASNCFAIRHFENKFAVETLICAQVHMFYPYSPL | inactive
48 | EASNCFAIRHFENKFAVETLICAQYSNCGANSTK | 1.26
49 | EASNCFAIRHFENKFAVETLICAR | inactive
50 | EASNCFAIRHFENKFAVETLICARCSPSLQEG | -0.0953
51 | EASNCFAIRHFENKFAVETLICARCTWSACALDC | 1.26
52 | EASNCFAIRHFENKFAVETLICARDVPIMKYSAQ | 1.85
53 | EASNCFAIRHFENKFAVETLICARF | inactive
54 | EASNCFAIRHFENKFAVETLICARFIRGRVPFLW | inactive
55 | EASNCFAIRHFENKFAVETLICARGDKLYQGKES | inactive
56 | EASNCFAIRHFENKFAVETLICARGYCASCVKLP | 2.16
57 | EASNCFAIRHFENKFAVETLICARNAKTSFILHV | -0.077
58 | EASNCFAIRHFENKFAVETLICARPIYFFRSMHA | 5.28
59 | EASNCFAIRHFENKFAVETLICARSCVKAGKLWG | inactive
60 | EASNCFAIRHFENKFAVETLICARYQRSACWFCM | inactive

same assay, conditions: random library (experiment): 3

Row | Sequence | amyloid nucleation score
61 | EASNCFAIRHFENKFAVETLICARAEWRSSREKE | 3.07
62 | EASNCFAIRHFENKFAVETLICARAFMGLVRAAD | -0.0612
63 | EASNCFAIRHFENKFAVETLICARCATYVVLFGY | inactive
64 | EASNCFAIRHFENKFAVETLICARDTARRLRISR | inactive
65 | EASNCFAIRHFENKFAVETLICARFRVRMLISGM | inactive
66 | EASNCFAIRHFENKFAVETLICARGGTGYCRR | 2.41
67 | EASNCFAIRHFENKFAVETLICARGLLWVEVRSH | inactive
68 | EASNCFAIRHFENKFAVETLICARHASVASSVLG | inactive
69 | EASNCFAIRHFENKFAVETLICARKYAWHLRPCE | 0.454
70 | EASNCFAIRHFENKFAVETLICARLAWIASEVT | inactive
71 | EASNCFAIRHFENKFAVETLICARLKQCVKGSLL | inactive
72 | EASNCFAIRHFENKFAVETLICARMAQLHWLRR | inactive
73 | EASNCFAIRHFENKFAVETLICARPCHRCDTCGR | 0.59
74 | EASNCFAIRHFENKFAVETLICARPGVVWVTPGW | 3.76
75 | EASNCFAIRHFENKFAVETLICARQGLGFSCYKM | 3.35
76 | EASNCFAIRHFENKFAVETLICARQRRFGAKRRW | inactive
77 | EASNCFAIRHFENKFAVETLICARQSPKTSMIRF | 0.714
78 | EASNCFAIRHFENKFAVETLICARRCSSFRIGKS | inactive
79 | EASNCFAIRHFENKFAVETLICARSLIGLHVEVL | inactive
80 | EASNCFAIRHFENKFAVETLICARSVNGRFRWVR | 3.45
81 | EASNCFAIRHFENKFAVETLICARVLARQSKVER | inactive
82 | EASNCFAIRHFENKFAVETLICARVSETFGLFGV | inactive
83 | EASNCFAIRHFENKFAVETLICARVSWWNAWCVA | 0.621
84 | EASNCFAIRHFENKFAVETLICARVVMWWGNSGA | inactive
85 | EASNCFAIRHFENKFAVETLICARWPREVGRSIG | inactive
